Source: paper PMC4265151
No constants are given. Whether binding was seen depends on the method and setting. Some binding calls cover weakened binding; strength is not graded here.

T1: KCBP_(12–622) (Arabidopsis thaliana) (UniProt Q9FHN8)
T1 sequence: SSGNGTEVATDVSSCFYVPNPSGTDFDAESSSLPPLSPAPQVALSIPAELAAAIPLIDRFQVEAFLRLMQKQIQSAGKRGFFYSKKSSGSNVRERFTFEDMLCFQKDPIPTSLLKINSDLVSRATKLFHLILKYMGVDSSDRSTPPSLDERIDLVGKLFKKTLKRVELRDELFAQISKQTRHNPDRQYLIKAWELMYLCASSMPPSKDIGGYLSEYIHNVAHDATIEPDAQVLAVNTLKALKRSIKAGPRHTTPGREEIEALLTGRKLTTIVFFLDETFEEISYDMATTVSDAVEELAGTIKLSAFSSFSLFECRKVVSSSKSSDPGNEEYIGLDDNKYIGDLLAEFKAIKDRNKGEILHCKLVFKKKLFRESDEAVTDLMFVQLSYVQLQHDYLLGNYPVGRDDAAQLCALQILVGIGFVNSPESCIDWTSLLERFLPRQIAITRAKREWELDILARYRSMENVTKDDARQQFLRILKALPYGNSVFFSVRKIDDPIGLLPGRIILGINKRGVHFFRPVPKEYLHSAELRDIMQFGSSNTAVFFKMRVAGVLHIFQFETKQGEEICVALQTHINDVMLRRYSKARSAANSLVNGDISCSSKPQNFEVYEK

T2: KCBP_(12–923) (Arabidopsis thaliana) (UniProt Q9FHN8)
T2 sequence: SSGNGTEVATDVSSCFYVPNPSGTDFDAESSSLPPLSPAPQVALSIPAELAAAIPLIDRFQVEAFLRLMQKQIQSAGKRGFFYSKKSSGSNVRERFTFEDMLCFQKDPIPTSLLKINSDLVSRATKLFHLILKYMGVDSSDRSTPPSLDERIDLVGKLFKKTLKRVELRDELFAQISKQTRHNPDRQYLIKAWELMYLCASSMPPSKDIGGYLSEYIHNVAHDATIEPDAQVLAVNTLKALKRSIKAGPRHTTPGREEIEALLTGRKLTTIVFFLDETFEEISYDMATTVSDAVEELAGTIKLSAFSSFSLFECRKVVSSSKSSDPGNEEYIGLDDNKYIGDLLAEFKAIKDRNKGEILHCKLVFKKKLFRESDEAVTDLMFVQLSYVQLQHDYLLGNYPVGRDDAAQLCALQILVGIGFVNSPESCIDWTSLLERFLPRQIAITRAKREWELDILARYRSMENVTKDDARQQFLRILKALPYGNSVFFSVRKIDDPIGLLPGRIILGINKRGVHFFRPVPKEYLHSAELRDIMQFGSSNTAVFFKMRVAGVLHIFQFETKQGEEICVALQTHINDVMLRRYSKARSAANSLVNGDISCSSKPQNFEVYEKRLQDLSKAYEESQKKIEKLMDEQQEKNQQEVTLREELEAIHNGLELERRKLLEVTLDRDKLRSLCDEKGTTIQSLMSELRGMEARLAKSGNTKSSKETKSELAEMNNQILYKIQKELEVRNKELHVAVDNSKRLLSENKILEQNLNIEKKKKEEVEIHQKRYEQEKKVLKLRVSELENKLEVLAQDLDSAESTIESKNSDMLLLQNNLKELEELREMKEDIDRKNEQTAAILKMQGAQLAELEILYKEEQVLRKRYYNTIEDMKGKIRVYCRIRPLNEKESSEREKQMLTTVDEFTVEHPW


How the values were obtained:
[1] = molecular target: T1, KCBP_(12–622) (Arabidopsis thaliana); test: two-hybrid; pairwise: pGBKT7 (GAL4 DNA-binding domain) and pGADT7 (GAL4 activation domain) plasmids in yeast Y187, SD-Leu-Trp; filter lifts for beta-galactosidase with X-Gal (blue colour); negatives monitored for up to 24 h, PERK8 and -9 transformants for shorter times because of some background activity
[2] = molecular target: T2, KCBP_(12–923) (Arabidopsis thaliana); test: as above

Row | binding [1] | binding [2] | Binder
1 | binds | binds | KIPK2_(277–948) (domain or fragment, UniProt Q9SJM3 277-948) PHMVIEDQLVEIDKHVTSLPSCSGSKVDTEELDKSIVSSARVKSEPTALSSGLKGKLDNFPGSGTEKSKLVSKVTRNIPRPKPRPKKKILLKKKLKIVVNSATKMVEEVDTSLEPSASQLLCQKCHCAVKSTSTENHPPSNTSHTTDKNVSIEADQESLASPRLIRIVKCNKEASKGSSDSCEVSDSGEAVIVMKQEVSPSNYSGKGDADEQIRANPTSSEKFDFSLSSKNSLGDYSSSTSMSEESNLSRFSCGNKPHMSMDVRWEAVKHVKLQYGSLGLRHFNLLKKLGCGDIGTVYLAELVGTNCLFAIKVMDNEFLARRKKTPRAQAERAILKMLDHPFLPTLYAQFTSDNLSCLVMEYCPGGDLHVLRQKQLSRCFSEPATRFYVAEILLALEYLHMLGVIYRDLKPENILVREDGHIMLTDFDLSLRCAVNPTLLRSTSPPEKDPARMSGPYSTSNCIQPLCIEPSCRVPCFSPRLLSTQARNQKPRKPKRPDLLTQQFRSLPQLVAEPTEARSNSFVGTHEYLAPEIIKGEGHGAAVDWWTFGVLLYELLYGKTPFKGYDNEETLSNVVYQNLKFPDSPLVSFQAKELIRRLLVKDPESRLGSEKGAAEIKRHPFFEGLNWALIRCAIPPELPDIYDNGATEATSPEGNNRYLECKAIGDHLEFEL
2 | – | binds | KIPK1_(303–934) (domain or fragment, UniProt Q9LFA2 303-934) NISSSAVDSEQKGKLDDAPNSGTENGKTVRKVTRMIPRPKQPKKKILLKKKLKIGVVSATYPTKDDEEIVPSLDSSANQLLCQRCHCSLKSTSIDDNPPSYTSSHNPKICTDSLSSVSNKEAHQGSDENSSGSCNVSQSSEADIVIMKQDVSSSNNSGIGAMVEKETENPTSSEKFEFSLSSKDSLGDYSRSTSISEESNLSRFSCGNKPHMSMDVRWEAIKHIKVQYGSLGLRHFNLLKKLGCGDIGTVYLAELIGTNCLFAIKVMDNEFLARRKKSPRAQAEREILKMLDHPFLPTLYAQFTSDNLSCLVMEYCPGGDLHVLRQKQLGRCFPEPAARFYVAEILLALEYLHMLGIIYRDLKPENILVREDGHIMLTDFDLSLRCAVNPTLVRSNSPPGKDPARISGPYNTSNCIQPFCITEPSCQVSCFSPRLSSNQQQGRKPKRGDHLSKTQQHLSRSLPQLVAEPTEARSNSFVGTHEYLAPEIIKGEGHGAAVDWWTFGVLLYELLYGKTPFKGYNNDETLANVVLQNLKFPDSPLVSFQAKDLIRGLLVKEPENRLGSEKGSVEIKRHPFFEGLNWALIRCAIPPELPDFYEYGGGPEAAADSPGGSNNRYLECKAIGDHLEFELF
3 | no binding | no binding | KIPK2_(277–624) (domain or fragment, UniProt Q9SJM3 277-624) PHMVIEDQLVEIDKHVTSLPSCSGSKVDTEELDKSIVSSARVKSEPTALSSGLKGKLDNFPGSGTEKSKLVSKVTRNIPRPKPRPKKKILLKKKLKIVVNSATKMVEEVDTSLEPSASQLLCQKCHCAVKSTSTENHPPSNTSHTTDKNVSIEADQESLASPRLIRIVKCNKEASKGSSDSCEVSDSGEAVIVMKQEVSPSNYSGKGDADEQIRANPTSSEKFDFSLSSKNSLGDYSSSTSMSEESNLSRFSCGNKPHMSMDVRWEAVKHVKLQYGSLGLRHFNLLKKLGCGDIGTVYLAELVGTNCLFAIKVMDNEFLARRKKTPRAQAERAILKMLDHPFLPTLYA

The next lines start with the binder.

Row | Binder | binding [1] | binding [2]
4 | KIPK1_(303–582) (domain or fragment, UniProt Q9LFA2 303-582) NISSSAVDSEQKGKLDDAPNSGTENGKTVRKVTRMIPRPKQPKKKILLKKKLKIGVVSATYPTKDDEEIVPSLDSSANQLLCQRCHCSLKSTSIDDNPPSYTSSHNPKICTDSLSSVSNKEAHQGSDENSSGSCNVSQSSEADIVIMKQDVSSSNNSGIGAMVEKETENPTSSEKFEFSLSSKDSLGDYSRSTSISEESNLSRFSCGNKPHMSMDVRWEAIKHIKVQYGSLGLRHFNLLKKLGCGDIGTVYLAELIGTNCLFAIKVMDNEFLARRKKSPR | binds | binds
5 | KIPK1_(84–582) (domain or fragment, UniProt Q9LFA2 84-582) SAGPSRTTSPSKRIASMKKPGTPQSPRFVGLSDSVSLKQALRDRCISKASEMAAQKRLSKSAAASPRVSEADRIKSLYNQVSNESTSSRSGLVPVDKGKGSLVEIPLMPVNDKPSSSKSVPQRFEDPSNPISEPSQAGTSFGLQGVGNQTREIKLLHRSNKPGSCLSSGSGDYEIELDENVASPSTHAFVEDDVIEIDKHVTSLPSHSSKKVNATELDKNISSSAVDSEQKGKLDDAPNSGTENGKTVRKVTRMIPRPKQPKKKILLKKKLKIGVVSATYPTKDDEEIVPSLDSSANQLLCQRCHCSLKSTSIDDNPPSYTSSHNPKICTDSLSSVSNKEAHQGSDENSSGSCNVSQSSEADIVIMKQDVSSSNNSGIGAMVEKETENPTSSEKFEFSLSSKDSLGDYSRSTSISEESNLSRFSCGNKPHMSMDVRWEAIKHIKVQYGSLGLRHFNLLKKLGCGDIGTVYLAELIGTNCLFAIKVMDNEFLARRKKSPR | binds | binds
